Measurements taken from US20260158070A1, “COMPOSITIONS AND METHODS FOR THE TREATMENT AND DIAGNOSIS OF CANCERS ASSOCIATED WITH SURFACE K-RAS” (UNIVERSITY OF MARYLAND, BALTIMORE, priority 2023, published 2026).
“Also recorded” adds a separate entry of the source. Read-outs that look alike come from different tables or passages of the source.

B1: Human Anti-K-Ras Antibody 1: Full HC SEQ ID NO: 9, full LC SEQ ID NO: 13 (antibody)
heavy: EVQLVQSGGGVVQPGRSLRLSCAASGFTSRHPGMHWVRQAPGKGLEWVAVISHDGSKKYYADSVKGRFTISRDNSKNTLFVQLSSLRPEDTAVYYCATSLYSSMDLWGQGTTVTVSSASTKGPSVFPLAPSSKSTSGGTAALGCLVKDYFPEPVTVSWNSGALTSGVHTFPAVLQSSGLYSLSSVVTVPSSSLGTQTYICNVNHKPSNTKVDKKV[human IgG1 Fc with changes left out]
light: QSVVTQPPSVSAAPGQKVTISCSGSNSNIGKNYVSWFQQVPGTAPKLLIFEDNQRPSGIPDRFSASKSGTSASLAISGLQSEDEADYYCAAWDDKFGVHWVFGGGTKLTVLGQPKAAPSVTLFPPSSEELQANKATLVCLISDFYPGAVTVAWKADSSPVKAGVETTTPSKQSNNKYAASSYLSLTPEQWKSHRSYSCQVTHEGSTVEKTVAPTECS
B2: Human Anti-K-Ras Antibody 2: Full HC SEQ ID NO: 17, full LC SEQ ID NO: 21 (antibody)
heavy: EVQLLEPGGGVVQPGRSLRLSCTNSGFSFSGYAMHWVRQAPGKGLEWVAVISFDGSHKYYADSVKGRFTISRDNSKNTLYLHMNSLRAEDTAVYYCASGGNYYGSGTIVSHGMDVWGQGTTVTVSSASTKGPSVFPLAPSSKSTSGGTAALGCLVKDYFPEPVTVSWNSGALTSGVHTFPAVLQSSGLYSLSSVVTVPSSSLGTQTYICNVNHKPSNTKVDKKV[human IgG1 Fc with changes left out]
light: QSVLTQPASVSGSPGQSITISCTGTSNDIGAYNYVSWYQQHPGKAPKLMIYDVNNRPSGVPDRFSGSKSGNMASLTISGLQAEDDADYYCSSYTSSSTLVVFGGGTKLTVLGQPKAAPSVTLFPPSSEELQANKATLVCLISDFYPGAVTVAWKADSSPVKAGVETTTPSKQSNNKYAASSYLSLTPEQWKSHRSYSCQVTHEGSTVEKTVAPTECS

How the values were obtained:
[1] = tested on: live Panc-1 cells; experiment: High resolution confocal microscopy of surface K-Ras staining; type: cell-based, human
[2] = tested on: Panc-1; experiment: Flow cytometry surface staining with anti-K-Ras antibodies; type: cell-based, human; conditions: 10 μg/ml antibody, 30 minutes on ice
[3] = tested on: RASless MEFs rescued with G12D mutant K-Ras 4B; experiment: as above; type: cell-based, mouse; conditions: 10 μg/ml antibody, 30 minutes on ice
[4] = tested on: RASless MEFs rescued with wild-type K-Ras 4A; experiment: as above; type: cell-based, mouse; conditions: 10 μg/ml antibody, 30 minutes on ice
[5] = tested on: MiaPaca-2; experiment: as above; type: cell-based; conditions: 10 μg/ml antibody, 30 minutes on ice
[6] = tested on: MHC Class I-deficient Panc-1 cell line; experiment: Surface K-Ras staining of MHC Class I-deficient cells; type: cell-based, human; conditions: beta-2 microglobulin excised by CRISPR-Cas-9
Text: It has been previously described that peptide fragments of both mutant and wild-type K-Ras can be presented at the cell surface in the context of self MHC Class I (PMID: 36099883, PMID: 27959684, PMID: 34272369).

[7] = tested on: Additional G12D K-Ras tumor cell lines; experiment: Flow cytometry surface staining, multiple tumor cell lines (FIG. 2f); type: cell-based
[8] = tested on: RASless MEFs rescued with G12V K-Ras 4B; experiment: Flow cytometry surface staining with anti-K-Ras antibodies; type: cell-based, mouse; conditions: 10 μg/ml antibody, 30 minutes on ice
[9] = tested on: RASless MEFs rescued with wild-type K-Ras 4B; experiment: as above; type: cell-based, mouse; conditions: 10 μg/ml antibody, 30 minutes on ice
[10] = tested on: human tumor cell line PANC-1; experiment: Cell line-derived xenograft model of pancreatic cancer, in vivo ADC experiment; parameters: species or system Balb/c nude mice; conditions: 10 mg/kg i.v. QW × 2 weeks; gemcitabine 50 mg/kg i.p. BIW × 2 weeks
Description: DXd is a protease cleavable linker attached to a derivative of exatecan that acts as topoisomerase I inhibitor. DXd targeted to cancer cells by antibodies as an ADC has been used by FDA-approved […] is a conjugation of anti-Her-2 antibody and deruxtecan. DXd was conjugated via stochastic maleimide conjugation to interchain cysteines of the antibodies. The antibodies were first reduced using 10× molar equivalents of 10 mM TCEP at 37° C. for 90 minutes with shaking. The reduced antibodies were then conjugated with 10× molar equivalents of 10 mM DXd at room temperature for 2 hours. Conjugated antibodies were evaluated for the drug to antibody ratio (DAR) by reducing 10 μg of the crude conjugate with DTT at 37° C. for 30 minutes. The final DAR for the conjugated antibodies was 8. The multimeric state of the conjugated antibodies was evaluated by size exclusion chromatography and confirmed to be monomeric. Conjugated antibodies were purified from unconjugated DXd by dialysis against PBS, pH 5.6 with a 10K molecular-weight cut-off (MWCO) membrane for 48 hours. Next, we utilized a cell line-derived xenograft model of pancreatic cancer, where the human tumor cell line PANC-1 was implanted into Balb/c nude mice. The nude mouse is a naturally mutated mouse that lacks a thymus and hair (nude). […]

[11] = tested on: cells from normal or fibrotic lung tissue; experiment: Flow cytometric analysis of surface K-Ras from primary human tissue; type: cell-based; conditions: single donor
Description: Human tissue from cancerous sites, as well as adjacent normal tissue, were banked right after surgical procedure. Tissues were immediately processed according to the following protocol to isolate single cells. Briefly, each tissue was cut into very small segments using a sterile blade. Then tissues were resuspended in RPM11640 complete media (with 10% FBS, 1× penicillin-streptomycin) and run in MACS dissociator (Milteny Biotech) for 2 cycles of 1 min each to initiate dissociation. Next the tissues were digested in digestion media consisting of IMDM media, supplemented with collagenase type 2 (0.5 mg/ml) and DNase (0.5ul/sample). The total digestion media volume used was 7 ml for each tissue size of 1 mg. Next the tissues, immersed in digestion media was shaken at 37° C. for 35 min at 850 rpm. Following digestion, the tissues were run again in gentle MACS dissociator to break up the digested tissue and retrieve single cells. Cells were next washed twice in 1×PBS to eliminate any digesting enzyme and DNase. Cells were passed through a 70 uM strainer and resuspended in RPMI complete media. Single cell suspensions obtained from patients as set forth in Example 1 can be used for flow cytometric analysis.

[12] = tested on: PDX model PA0787 and PA1252 (human pancreatic cancer expressing the G12D Kras mutation); experiment: In vivo staining of PDX tumor tissue after i.v. antibody injection (immunohistochemistry); parameters: species or system nude Balb/c mice; conditions: 10 mg/kg tail vein, 30 minutes
Description: Each mouse was inoculated subcutaneously in the right upper/lower flank with primary human tumor xenograft model tumor fragment (2-3 mm in diameter) for tumor development. Once the tumors reached approximately 500 mm^3 the mice were injected with antibodies as described below.
30 minutes later the mice were euthanized, and the tumors were harvested and frozen in optimal cutting temperature (OCT) freezing media for immunohistochemical evaluation.
The tumors were sectioned into 5 um sections on a standard dermatome and processed for immunohistochemistry. Briefly, cryosections were fixed with cold acetone/methanol (at a 1:1 dilution) solution for 5 minutes. After washing sections in PBS for 15 minutes, sections were blocked with 10% normal goat serum at room temperature for 45 minutes and incubated with secondary goat anti-human IgG (Alexa fluro 488 Invitrogen A-11013) at room temperature for 45 minutes. ProLong™ Gold Antifade Reagent with DAPI (Catalog P36931 ThermoFisher Scientific) was added before putting the cover slides on. Images were acquired with the Leica Microsystems DM6B-Z.

| Molecule | surface staining by confocal microscopy [1] | surface staining by confocal microscopy ([1]; listed as anti-KRAS antibody) | surface staining [2] | surface staining / binding [3] | surface staining / binding [4] | surface staining [5] | staining compared to the MHC Class I-sufficient parental cell line [6] | surface staining [7] | surface staining / binding [8] | surface staining / binding [9] | tumor growth (tumor volume) [10] | K-Ras surface expression, fibrotic vs normal lung tissue [11] | tumor staining vs isotype control antibody ([12]; PDX model PA0787) | tumor staining vs isotype control antibody ([12]; PDX model PA1252) |
| --- | --- | --- | --- | --- | --- | --- | --- | --- | --- | --- | --- | --- | --- | --- |
| B1 | Surface staining of live Panc-1 cells with Human Anti-K-Ras Antibody 1 was also observed | distinct KRAS staining | staining was evident on the surface | staining was evident on the surface; also recorded: demonstrated binding | demonstrated binding | staining was evident on the surface | identical staining | also showed surface staining | but not G12V K-Ras 4B | demonstrated binding | showed decreased tumor growth over isotype treated mice | increase in K-Ras surface expression | better tumor staining | better tumor staining |
| B2 |  |  | staining was evident on the surface | staining was evident on the surface |  | staining was evident on the surface |  |  |  |  |  | increase in K-Ras surface expression |  |  |
